How the values were obtained:
[1] = target: CEA (SPR ligand) (human, UniProt P06731); assay: SPR at 25° C.
[2] = target: T1, human IL-2R α-subunit (human); assay: SPR at 25° C.
T1 chain: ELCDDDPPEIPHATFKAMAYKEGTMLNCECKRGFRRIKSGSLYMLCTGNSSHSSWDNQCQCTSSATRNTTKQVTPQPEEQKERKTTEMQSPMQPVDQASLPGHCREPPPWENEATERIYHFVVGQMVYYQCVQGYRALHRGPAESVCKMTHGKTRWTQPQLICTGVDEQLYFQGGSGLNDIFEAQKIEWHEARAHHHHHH

[3] = target: IL-2R βγ heterodimer on human PBMC subsets (NK cells, CD8+ T cells, CD4+ T cells, Treg cells) (human, UniProt P14784); assay: cell-based or functional assay
[4] = target: human FAP expressed on stably transfected HEK293 cells (human, UniProt Q12884); assay: FACS on HEK293 cells stably transfected with human FAP
[5] = target: human IL-2R βγ heterodimer (IL-2R βγ subunit-Fc fusion) (human); assay: SPR, IL-2R βγ heterodimer immobilized on CM5 chip; apparent KD, 1:1 fit

B1: CEA-targeted CH1A1A 98/99 2F1-based IgG-IL-2 wt immunoconjugate (other)
heavy 1: QVQLVQSGAEVKKPGASVKVSCKASGYTFTEFGMNWVRQAPGQGLEWMGWINTKTGEATYVEEFKGRVTFTTDTSTSTAYMELRSLRSDDTAVYYCARWDFAYYVEAMDYWGQGTTVTVSSASTKGPSVFPLAPSSKSTSGGTAALGCLVKDYFPEPVTVSWNSGALTSGVHTFPAVLQSSGLYSLSSVVTVPSSSLGTQTYICNVNHKPSNTKVDKKVEPKSCDKTHTCPPCPAPEAAGGPSVFLFPPKPKDTLMISRTPEVTCVVVDVSHEDPEVKFNWYVDGVEVHNAKTKPREEQYNSTYRVVSVLTVLHQDWLNGKEYKCKVSNKALGAPIEKTISKAKGQPREPQVCTLPPSRDELTKNQVSLSCAVKGFYPSDIAVEWESNGQPENNYKTTPPVLDSDGSFFLVSKLTVDKSRWQQGNVFSCSVMHEALHNHYTQKSLSLSPGK
heavy 2: QVQLVQSGAEVKKPGASVKVSCKASGYTFTEFGMNWVRQAPGQGLEWMGWINTKTGEATYVEEFKGRVTFTTDTSTSTAYMELRSLRSDDTAVYYCARWDFAYYVEAMDYWGQGTTVTVSSASTKGPSVFPLAPSSKSTSGGTAALGCLVKDYFPEPVTVSWNSGALTSGVHTFPAVLQSSGLYSLSSVVTVPSSSLGTQTYICNVNHKPSNTKVDKKV[human IgG1 Fc with changes not given here]GGGGSGGGGSGGGGS[about 150 residues not given here]
light: DIQMTQSPSSLSASVGDRVTITCKASAAVGTYVAWYQQKPGKAPKLLIYSASYRKRGVPSRFSGSGSGTDFTLTISSLQPEDFATYYCHQYYTYPLFTFGQGTKLEIKRTVAAPSVFIFPPSDEQLKSGTASVVCLLNNFYPREAKVQWKVDNALQSGNSQESVTEQDSKDSTYSLSSTLTLSKADYEKHKVYACEVTHQGLSSPVTKSFNRGEC
Binder B1 has a Kd [1] of 0.47 nM and a Kd [2] of roughly 20 nM.

B2: CEA-targeted CH1A1A 98/99 2F1-based IgG-IL-2 qm immunoconjugate (other)
heavy 1: QVQLVQSGAEVKKPGASVKVSCKASGYTFTEFGMNWVRQAPGQGLEWMGWINTKTGEATYVEEFKGRVTFTTDTSTSTAYMELRSLRSDDTAVYYCARWDFAYYVEAMDYWGQGTTVTVSSASTKGPSVFPLAPSSKSTSGGTAALGCLVKDYFPEPVTVSWNSGALTSGVHTFPAVLQSSGLYSLSSVVTVPSSSLGTQTYICNVNHKPSNTKVDKKVEPKSCDKTHTCPPCPAPEAAGGPSVFLFPPKPKDTLMISRTPEVTCVVVDVSHEDPEVKFNWYVDGVEVHNAKTKPREEQYNSTYRVVSVLTVLHQDWLNGKEYKCKVSNKALGAPIEKTISKAKGQPREPQVCTLPPSRDELTKNQVSLSCAVKGFYPSDIAVEWESNGQPENNYKTTPPVLDSDGSFFLVSKLTVDKSRWQQGNVFSCSVMHEALHNHYTQKSLSLSPGK
heavy 2: QVQLVQSGAEVKKPGASVKVSCKASGYTFTEFGMNWVRQAPGQGLEWMGWINTKTGEATYVEEFKGRVTFTTDTSTSTAYMELRSLRSDDTAVYYCARWDFAYYVEAMDYWGQGTTVTVSS[human IgG1 constant region with changes not given here]SGGGGSGGGGSGGGGAPASSSTKKTQLQLEHLLLDLQMILNGINNYKNPKLTRMLTAKFAMPKKATELKHLQCLEEELKPLEEVLNGAQSKNFHLRPRDLISNINVIVLELKGSETTFMCEYADETATIVEFLNRWITFAQSIISTLT
light: DIQMTQSPSSLSASVGDRVTITCKASAAVGTYVAWYQQKPGKAPKLLIYSASYRKRGVPSRFSGSGSGTDFTLTISSLQPEDFATYYCHQYYTYPLFTFGQGTKLEIKRTVAAPSVFIFPPSDEQLKSGTASVVCLLNNFYPREAKVQWKVDNALQSGNSQESVTEQDSKDSTYSLSSTLTLSKADYEKHKVYACEVTHQGLSSPVTKSFNRGEC
For B2, the Kd [1] was 0.4 nM.

B3: FAP-targeted 4G8-based IgG-IL-2 qm immunoconjugate (other)
heavy 1: [about 100 residues not given here]GWLGNFDYWGQGTLVTVSSASTKGPSVFPLAPSSKSTSGGTAALGCLVKDYFPEPVTVSWNSGALTSGVHTFPAVLQSSGLYSLSSVVTVPSSSLGTQTYICNVNHKPSNTKVDKKVEPKSCDKTHTCPPCPAPEAAGGPSVFLFPPKPKDTLMISRTPEVTCVVVDVSHEDPEVKFNWYVDGVEVHNAKTKPREEQYNSTYRVVSVLTVLHQDWLNGKEYKCKVSNKALGAPIEKTISKAKGQPREPQVCTLPPSRDELTKNQVSLSCAVKGFYPSDIAVEWESNGQPENNYKTTPPVLDSDGSFFLVSKLTVDKSRWQQGNVFSCSVMHEALHNHYTQKSLSLSPGK
heavy 2: [about 100 residues not given here][about 120 residues not given here][human IgG1 Fc with changes not given here]GGGGSGGGGSGGGGAPASSSTKKTQLQLEHLLLDLQMILNGINNYKNPKLTRMLTAKFAMPKKATELKHLQCLEEELKPLEEVLNGAQSKNFHLRPRDLISNINVIVLELKGSETTFMCEYADETATIVEFLNRWITFAQSIISTLT
light: EIVLTQSPGTLSLSPGERATLSCRASQSVSRSYLAWYQQKPGQAPRLLIIGASTRATGIPDRFSGSGSGTDFTLTISRLEPEDFAVYYCQQGQVIPPTFGQGTKVEIKRTVAAPSVFIFPPSDEQLKSGTASVVCLLNNFYPREAKVQWKVDNALQSGNSQESVTEQDSKDSTYSLSSTLTLSKADYEKHKVYACEVTHQGLSSPVTKSFNRGEC
B3 was tested, and the “STAT5 phosphorylation in NK cells and CD8+ T cells from human PBMCs (FACS)” value [3] was < 10 fold less potent than Proleukin, the EC50 [4] was 0.9 nM and the Kd [5] was 5.9 nM.

B4: FAP-targeted 4B9-based IgG-IL-2 wt immunoconjugate (other)
heavy 1: EVQLLESGGGLVQPGGSLRLSCAASGFTFSSYAMSWVRQAPGKGLEWVSAIIGSGASTYYADSVKGRFTISRDNSKNTLYLQMNSLRAEDTAVYYCAKGWFGGFNYWGQGTLVTVSSASTKGPSVFPLAPSSKSTSGGTAALGCLVKDYFPEPVTVSWNSGALTSGVHTFPAVLQSSGLYSLSSVVTVPSSSLGTQTYICNVNHKPSNTKVDKKVEPKSCDKTHTCPPCPAPEAAGGPSVFLFPPKPKDTLMISRTPEVTCVVVDVSHEDPEVKFNWYVDGVEVHNAKTKPREEQYNSTYRVVSVLTVLHQDWLNGKEYKCKVSNKALGAPIEKTISKAKGQPREPQVCTLPPSRDELTKNQVSLSCAVKGFYPSDIAVEWESNGQPENNYKTTPPVLDSDGSFFLVSKLTVDKSRWQQGNVFSCSVMHEALHNHYTQKSLSLSPGK
heavy 2: EVQLLESGGGLVQPGGSLRLSCAASGFTFSSYAMSWVRQAPGKGLEWVSAIIGSGASTYYADSVKGRFTISRDNSKNTLYLQMNSLRAEDTAVYYCAKGWFGGFNYWGQGTLVTVSSASTKGPSVFPLAPSSKSTSGGTAALGCLVKDYFPEPVTVSWNSGALTSGVHTFPAVLQSSGLYSLSSVVTVPSSSLGTQTYICNVNHKPSNTKVDKKV[human IgG1 Fc with changes not given here]GGGGSGGGGSGGGGS[about 150 residues not given here]
light: EIVLTQSPGTLSLSPGERATLSCRASQSVTSSYLAWYQQKPGQAPRLLINVGSRRATGIPDRFSGSGSGTDFTLTISRLEPEDFAVYYCQQGIMLPPTFGQGTKVEIKRTVAAPSVFIFPPSDEQLKSGTASVVCLLNNFYPREAKVQWKVDNALQSGNSQESVTEQDSKDSTYSLSSTLTLSKADYEKHKVYACEVTHQGLSSPVTKSFNRGEC
B4 showed a Kd [2] of roughly 20 nM.
